From PubChem BioAssay AID504333 (National Center for Advancing Translational Sciences (NCATS), 2011)
In all, about 360,000 compounds went through this assay and about 16,000 (4.4%) were called active. The shares of active, inactive and inconclusive entries below differ from those in the screen. Calls come from the whole dose curve; as a rule, active = well fitted inhibition curve with a large enough effect; inconclusive = small, poorly fitted or top-dose-only effect; inactive = no such curve, though single readings can be large or run the other way. Where the call is inconclusive, the potency comes from a doubtful curve fit.
% is set by controls: 0 for no effect and ±100 for the full control effect; potency is the fitted concentration of half-maximal effect; tags give direction and shape of the fitted curve.
Note: nearly all actives have a fitted effect of over 60% in size.

Each molecule was assayed against Bromodomain adjacent to zinc finger domain protein 2B (Homo sapiens) (UniProt Q9UIF8) (assay: qHTS Assay for Inhibitors of BAZ2B). Details: AlphaScreen BAZ2B-H3K14Ac peptide displacement; activity change, negative = inhibition: at 114 µM (top of the series) unless noted.
Sequence of UniProt Q9UIF8 (Q9UIF8 whole entry, looked up, the tested form may be a part): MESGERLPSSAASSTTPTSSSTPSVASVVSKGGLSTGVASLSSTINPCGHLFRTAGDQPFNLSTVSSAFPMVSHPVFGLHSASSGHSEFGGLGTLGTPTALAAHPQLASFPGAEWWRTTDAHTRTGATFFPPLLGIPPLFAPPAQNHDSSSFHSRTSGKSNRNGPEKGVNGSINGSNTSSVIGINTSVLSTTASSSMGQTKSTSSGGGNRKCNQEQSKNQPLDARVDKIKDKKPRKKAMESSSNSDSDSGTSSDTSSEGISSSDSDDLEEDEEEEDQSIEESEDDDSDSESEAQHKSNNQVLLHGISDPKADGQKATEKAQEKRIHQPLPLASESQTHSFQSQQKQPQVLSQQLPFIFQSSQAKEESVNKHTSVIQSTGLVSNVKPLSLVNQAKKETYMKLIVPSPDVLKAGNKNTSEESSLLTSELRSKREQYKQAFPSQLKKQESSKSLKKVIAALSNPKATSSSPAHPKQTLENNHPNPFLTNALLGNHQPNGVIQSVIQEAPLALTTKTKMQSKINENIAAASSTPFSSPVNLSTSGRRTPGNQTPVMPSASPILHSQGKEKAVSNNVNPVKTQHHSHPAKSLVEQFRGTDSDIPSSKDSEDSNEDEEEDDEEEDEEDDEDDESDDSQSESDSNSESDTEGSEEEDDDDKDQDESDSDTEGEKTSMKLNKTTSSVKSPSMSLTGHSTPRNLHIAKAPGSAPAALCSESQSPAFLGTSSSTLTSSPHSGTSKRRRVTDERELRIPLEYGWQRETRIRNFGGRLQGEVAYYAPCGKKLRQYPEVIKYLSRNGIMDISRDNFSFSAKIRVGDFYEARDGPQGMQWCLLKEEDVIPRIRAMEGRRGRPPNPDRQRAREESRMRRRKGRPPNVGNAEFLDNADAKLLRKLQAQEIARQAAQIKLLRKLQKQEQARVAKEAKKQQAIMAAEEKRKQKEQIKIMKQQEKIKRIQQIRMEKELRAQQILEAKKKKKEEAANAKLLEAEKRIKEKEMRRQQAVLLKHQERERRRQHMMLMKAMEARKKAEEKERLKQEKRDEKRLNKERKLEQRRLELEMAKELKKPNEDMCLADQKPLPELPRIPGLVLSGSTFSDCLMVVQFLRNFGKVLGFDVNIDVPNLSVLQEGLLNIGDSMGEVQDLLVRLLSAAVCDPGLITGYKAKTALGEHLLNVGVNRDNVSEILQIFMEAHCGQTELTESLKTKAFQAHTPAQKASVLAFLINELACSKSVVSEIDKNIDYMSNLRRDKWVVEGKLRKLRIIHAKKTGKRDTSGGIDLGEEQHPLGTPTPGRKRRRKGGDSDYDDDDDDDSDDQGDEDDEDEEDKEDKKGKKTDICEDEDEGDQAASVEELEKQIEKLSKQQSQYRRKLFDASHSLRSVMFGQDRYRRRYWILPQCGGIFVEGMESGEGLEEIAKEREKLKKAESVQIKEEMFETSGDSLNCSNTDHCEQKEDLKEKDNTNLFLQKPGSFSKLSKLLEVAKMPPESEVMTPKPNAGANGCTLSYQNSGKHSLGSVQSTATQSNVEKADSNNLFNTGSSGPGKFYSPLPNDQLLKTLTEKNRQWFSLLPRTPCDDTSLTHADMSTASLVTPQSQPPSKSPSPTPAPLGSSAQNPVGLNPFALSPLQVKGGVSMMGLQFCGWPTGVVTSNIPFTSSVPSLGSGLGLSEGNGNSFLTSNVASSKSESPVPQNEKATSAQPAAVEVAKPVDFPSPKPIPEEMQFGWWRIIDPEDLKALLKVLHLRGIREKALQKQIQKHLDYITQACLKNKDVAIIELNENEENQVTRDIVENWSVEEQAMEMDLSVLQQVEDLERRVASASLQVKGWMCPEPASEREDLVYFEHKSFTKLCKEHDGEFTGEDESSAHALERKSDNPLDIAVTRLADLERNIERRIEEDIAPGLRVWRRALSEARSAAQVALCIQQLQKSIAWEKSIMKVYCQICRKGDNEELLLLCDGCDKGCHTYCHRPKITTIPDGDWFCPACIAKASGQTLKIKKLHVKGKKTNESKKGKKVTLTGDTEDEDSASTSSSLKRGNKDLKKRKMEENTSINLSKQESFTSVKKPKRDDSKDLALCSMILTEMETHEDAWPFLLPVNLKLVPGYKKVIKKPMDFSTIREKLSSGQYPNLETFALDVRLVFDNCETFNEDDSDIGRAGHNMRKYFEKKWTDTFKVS
Outline: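 Compounds, titrated to a top concentration of 110 uM, were incubated 30 min at room temperature with preformed BAZ2B/acetyl-K14 H3 peptide complex (50 nM each). Proximity signal was measured by AlphaScreen after 20 min with beads.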
In the case of `COC(=O)CN1C(=S)N(c2ccc(OC)cc2)C(=O)/C1=C/c1ccc(OC)cc1`, the “activity change, negative = inhibition” value is reported as inactive: -35.5%. For `Nn1c(Cc2cccc3ccccc23)nnc1SCc1ccccc1`, the “activity change, negative = inhibition” value was inactive: 1.49%. For `CCC1(C)Cc2ccccc2/C(=C/C(=O)N2CCCCC2)N1` (stereo not drawn), the Potency was inconclusive: 79.4 µM [inhibitor, single point]. `O=C(c1ccc(C#CC2(O)CCCCC2)cc1)N1CCN(C(c2ccccc2)c2ccccc2)CC1` was tested, and the Potency was inconclusive: 89.1 µM [inhibitor, single point]. `Cc1ccc(CNC(=O)c2ccc3c(c2)N(Cc2cccc(Cl)c2)C(=O)CS3)cc1` was tested, and the “activity change, negative = inhibition” value was inactive: 0.0771%. In the case of `COc1ccc(CCNC(=O)Cc2ccc(C)cc2)cc1OC`, the Potency is reported as active: 79.4 µM. In the case of `COc1cc(C(=O)Nc2cc(C(F)(F)F)ccc2N2CCOCC2)ccc1OCC(=O)N1CCOCC1`, the “activity change, negative = inhibition” value is reported as inactive: 8.66%. For `COc1ccc(N=Nc2[nH]c3ccc(C)cc3c2O)cc1`, the Potency was inconclusive: 50.1 µM [inhibitor, partial curve]. For `Cc1ccccc1N1Cc2ccccc2C1`, the Potency was inconclusive: 89.1 µM [inhibitor, single point]. `COc1ccc(-c2nc3ccc(C)cn3c2NCc2ccc3c(c2)OCO3)cc1` was tested, and the Potency was inconclusive: 50.1 µM [inhibitor, partial curve, poor fit]. `COc1cc(OC)c(NC(=S)Nc2cc(Cl)cc(Cl)c2)cc1Cl` was tested, and the Potency was inconclusive: 79.4 µM [inhibitor, single point]. In the case of `Cc1cccc(N2N=C(C(=O)Nc3nc(C)cs3)CCC2=O)c1`, the Potency is reported as inconclusive: 35.5 µM [inhibitor, partial curve]. In the case of `O=C(COC(=O)Cc1ccccc1[N+](=O)[O-])NC1CCCC1`, the Potency is reported as inconclusive: 89.1 µM [inhibitor, single point]. For `O=C(O)c1ccc(N=NN2CCCCC2)cc1`, the Potency was inconclusive: 35.5 µM [inhibitor, partial curve, poor fit]. For `COc1ccc(Cn2c(C(=O)O)c(CNCCc3ccccc3Cl)c3ccc(C)cc32)cc1`, the Potency was inconclusive: 50.1 µM [inhibitor, partial curve]. In the case of `CCOc1ccc(Nc2ccc([N+](=O)[O-])c3nonc23)cc1`, the Potency is reported as active: 14.1 µM. `COc1ccc(-n2nc3c(c2NC(=O)C(=O)N2CCN(C)CC2)CSC3)cc1` was tested, and the “activity change, negative = inhibition” value was inactive: 3.49%. For `Cc1ccc(NC(=O)C2CCCN(c3nnc(C)c4c(C)n(-c5ccccc5)nc34)C2)cc1Cl` (stereo not drawn), the Potency was inconclusive: 89.1 µM [inhibitor, single point]. With `Cc1cc(C)c(C(=O)/C=C/c2ccco2)c(=O)[nH]1` the Potency was inconclusive: 89.1 µM [inhibitor, single point]. With `O=C(CSc1nccn1-c1ccccc1)N1CCc2ccccc21` the Potency was inconclusive: 89.1 µM [inhibitor, single point]. In the case of `Cc1ccc(C)c(SCC(=O)OCC(=O)c2ccco2)c1`, the Potency is reported as active: 50.1 µM. For `O=C1c2[nH]nc(-c3ccccc3O)c2C(c2cccc(Br)c2)N1Cc1ccncc1` (stereo not drawn), the “activity change, negative = inhibition” value was inactive: -10.7%. `CCc1ccc(S(=O)(=O)ON2C(=O)c3ccccc3C2=O)cc1` was tested, and the Potency was inconclusive: 89.1 µM [inhibitor, single point]. For `CSCCC(NC(=O)c1ccco1)C(=O)N1CC=C(c2ccccc2)CC1` (stereo not drawn), the Potency was inconclusive: 70.8 µM [inhibitor, single point]. `C=C(C)C(=O)Nc1ccc(OC(F)(F)C(F)F)c(NC(=O)C(=C)C)c1` was tested, and the Potency was active: 44.7 µM. For `Cc1ccc(N2C(=O)c3cccc([N+](=O)[O-])c3C2=O)cc1C`, the Potency was inconclusive: 79.4 µM [inhibitor, single point]. `CC(CN1CCCCC1)NC(=O)c1cc(-c2ccccn2)nc2ccc(Cl)cc12` (stereo not drawn) was tested, and the Potency was inconclusive: 79.4 µM [inhibitor, single point]. With `N#CCC(=O)N/N=C/c1cc([N+](=O)[O-])ccc1N1CCOCC1` the Potency was inconclusive: 79.4 µM [inhibitor, single point]. In the case of `NNc1nc2c(Cl)ccc(Cl)c2s1`, the Potency is reported as active: 50.1 µM. For `Cc1ccc(N(CC(O)CN2CCCCC2)S(=O)(=O)c2ccc(C)cc2)cc1` (stereo not drawn), the “activity change, negative = inhibition” value was inactive: 1.76%. For `COc1ccc(NC(=O)Cn2ccn(Cc3ccccc3)c(=O)c2=O)cc1Cl`, the Potency was inconclusive: 89.1 µM [inhibitor, single point]. `Cc1cc(C(=O)NN)c2cc(Br)ccc2n1` was tested, and the Potency was inconclusive: 11.2 µM [inhibitor, full curve]. `CC(=O)c1cccc(CN(C)CC2CCCN(CCc3ccccc3C)C2)c1` (stereo not drawn) was tested, and the Potency was inconclusive: 50.1 µM [inhibitor, partial curve]. With `Cc1cc(C)cc(NC(c2cccc(Cl)c2)c2nnc(-c3ccccc3)o2)c1` (stereo not drawn) the “activity change, negative = inhibition” value was inactive: -28.4%. In the case of `CC(=O)c1c(C)[nH]c(C(=O)OC2CCCCC2=O)c1C` (stereo not drawn), the Potency is reported as inconclusive: 79.4 µM [inhibitor, single point]. In the case of `CSc1nc(N2CCOCC2)c2ccccc2n1`, the “activity change, negative = inhibition” value is reported as inactive: 7.45%. With `CCCCOc1ccc(S(=O)(=O)Nc2ccc(-c3ccc(N4CCCCC4)nn3)cc2)cc1` the “activity change, negative = inhibition” value was inactive: -29.6%. `Cc1ccc(CNCc2ccc3c(c2)OCO3)cc1` was tested, and the Potency was inconclusive: 89.1 µM [inhibitor, single point]. In the case of `CN(CC(=O)Nc1cccc(C(F)(F)F)c1)Cc1ccccc1`, the “activity change, negative = inhibition” value is reported as inactive: 38%. `Cc1cc(Br)ccc1OCCOCCN1CCCC1` was tested, and the Potency was inconclusive: 89.1 µM [inhibitor, single point]. For `COc1ccccc1CCN=C(N)NS(=O)(=O)c1ccc(C)cc1`, the “activity change, negative = inhibition” value was inactive: -23.7%. With `CCCC(C(=O)NCc1ccco1)N(C(=O)CNS(=O)(=O)c1ccccc1)c1ccccc1OC` (stereo not drawn) the Potency was inconclusive: 79.4 µM [inhibitor, single point]. For `O=C(O)CN1C(=O)C(=O)N(Cc2cccc(F)c2)C1=O`, the “activity change, negative = inhibition” value was inactive: -6.35%. `COc1cccc(OC)c1C(=O)NC(=S)Nc1ccc2oc(-c3ccncc3)nc2c1` was tested, and the “activity change, negative = inhibition” value was inactive: -4.23%. For `CN(C)c1ccc(C(=O)NNC(=O)c2ccc(Cl)cc2)cc1`, the Potency was inconclusive: 79.4 µM [inhibitor, single point]. For `CCc1nnc(NC(=O)c2ccc3ncsc3c2)s1`, the Potency was inconclusive: 89.1 µM [inhibitor, single point]. For `CC1CN(Cc2ccccc2Cl)CC(C)O1` (stereo not drawn), the Potency was active: 31.6 µM. In the case of `Cc1[nH]n(-c2ccccc2)c(=O)c1C=NC1CCCCCC1`, the “activity change, negative = inhibition” value is reported as inactive: -22%.
